Assay results reported in PMC10668032.
The other results are listed elsewhere or left out. At the low end of the ranking the order means little.

molecular target: SIX1-Q177R homeodomain (UniProt Q15475); assay: universal protein binding microarray; settings: Universal all-10-mer PBM (8x60K, AMADID 030236), 300 nM GST-tagged protein, Alexa Fluor 488 anti-GST; buffer, salt, pH and temperature not stated; high values mean tight binding; most listed sequences are background and not binding sites; double strand, one strand shown

Row | Sequence | binding signal [E-score]
1 | CGCTCAAG | -0.106
2 | ACAGACAT | -0.333
3 | CTGTCGCC | -0.206
4 | ACGCCGCG | 0.1
5 | CATGGGCA | -0.0644
6 | ACGAGCCG | -0.0193
7 | AAATAATC | -0.196
8 | ATGGCGTA | 0.0414
9 | AAGGGCCA | -0.15
10 | CTGGACAA | -0.193
11 | ATACTTTC | -0.069
12 | CCAGGTTC | 0.00292
13 | GGCCACAC | 0.233
14 | AAAGCAAG | -0.234
15 | CAAGCCCA | 0.0921
16 | TGAAATAA | -0.0774
17 | AAACACTG | 0.344
18 | ATCTATTA | -0.0806
19 | AACGGAGG | -0.00318
20 | AGTCACAG | -0.00583
21 | ATGAGCCC | 0.00462
22 | GGGAAGGA | -0.0961
23 | ACTTTGGG | -0.0092
24 | AGGCGGTC | -0.0695
25 | GCGACCAC | -0.21

Row | Sequence | binding signal [E-score]
26 | CCCGTTTA | 0.0712
27 | CTACAAAG | -0.0566
28 | ACTTATCG | -0.00777
29 | ACTCCCCG | 0.191
30 | TATTGACA | 0.194
31 | AGCAGTGG | -0.176
32 | ACATCCTG | -0.166
33 | TAGTAGAA | -0.0581
34 | GGGCCCAC | -0.166
35 | ATGCGGGG | -0.106
36 | CATCGGGA | 0.0149
37 | AGCCGCTG | -0.267
38 | ATTGTAGG | 0.0645
39 | AAGGTCAA | -0.205
40 | CCGCCAAC | -0.0039
41 | CTCAGTCC | -0.224
42 | ACCCAAAT | 0.0109
43 | TCATCCGA | -0.0314
44 | CCGCTTAG | -0.199
45 | CAACTACC | 0.0976
46 | GCGTACCA | -0.0251
47 | CACGGTAA | 0.126
48 | CTACCAAA | -0.0864
49 | TATCCGGA | 0.0271
50 | CGTTTAAG | -0.137

Row | Sequence | binding signal [E-score]
51 | CATAGTGG | 0.0376
52 | CAAGCTCA | -0.133
53 | ATCTCGAA | -0.0877
54 | CGTAAGGA | -0.0566
55 | TATTATGA | -0.118
56 | AGATGAAA | 0.0637
57 | GCCCCTAC | 0.126
58 | AGCGCTAG | -0.105
59 | CTGGATTA | -0.0308
60 | ATAATTGC | -0.258
61 | GATGAAGA | -0.155
62 | CGGGCGTC | 0.113
63 | CATTGGCA | -0.0295
64 | CTATGTGC | 0.039
65 | GACAAGCA | -0.131
66 | CTTCCTGC | -0.179
67 | AGGGAAAT | -0.18
68 | ACCATTGA | 0.107
69 | CTCGGATA | 0.188
70 | TCCGTAAA | -0.0461
71 | ACACACGC | 0.267
72 | GATATGGA | -0.027
73 | ATGTCGTC | -0.195
74 | CTCTTCCA | 0.0295
75 | AACATGCA | -0.0914

Row | Sequence | binding signal [E-score]
76 | TGCGATAA | -0.08
77 | CTTACTTA | 0.0909
78 | CTTTATTA | -0.0483
79 | CTATCTCA | 0.00567
80 | ACGTTACA | 0.0994
81 | CACTCAAA | -0.0269
82 | CAACGACA | 0.197
83 | AAATCAAT | -0.326
84 | ATATTAAG | -0.0737
85 | ACCTAGTA | 0.0107
86 | CCAACGGA | -0.00157
87 | CCAGTGCG | -0.087
88 | AAGGGTAC | 0.133
89 | GGGGCACA | 0.146
90 | GAGGTACC | -0.0384
91 | CGAGTAGA | -0.0697
92 | GCAGCAGC | 0.0239
93 | AGCGGCAC | 0.0152
94 | ATATCGAG | -0.0678
95 | ATCCACAT | -0.0528
96 | ATGGGCCG | -0.0525
97 | CGTAATTC | 0.0179
98 | ACTCATAT | -0.075
99 | CTCATGAA | -0.248
100 | ATTCTGGA | -0.164

Row | Sequence | binding signal [E-score]
101 | AAAAACTA | -0.197
102 | ATTGGCAG | -0.0192
103 | CGCAGCGA | -0.0359
104 | AGAGCGTA | -0.115
105 | GAGCGTGC | 0.0379
106 | GTGTCCTA | 0.4
107 | TACGAGAA | -0.239
108 | ACCCGAGA | 0.175
109 | ACACTGAG | 0.354
110 | GTGGGGCA | -0.00287
111 | TGCAGTAA | -0.191
112 | ACAATGGT | -0.0225
113 | AATCGTGT | 0.369
114 | AGCGACTC | 0.0748
115 | AGCATCGA | -0.163
116 | AGCTCGTG | 0.244
117 | AATGTAGT | -0.0425
118 | CCTTAACC | 0.107
119 | AAACATGC | -0.216
120 | AGTATACC | 0.12
121 | GCCTCACC | -0.106
122 | AATGCTGG | -0.0701
123 | GTCGTTCA | -0.0113
124 | ATAGCCCC | -0.0273
125 | GCTGGTAA | -0.246

Row | Sequence | binding signal [E-score]
126 | GAGACTAC | -0.0403
127 | GATCGTCC | -0.0133
128 | GTTCGATA | 0.0965
129 | CGAACATC | -0.0363
130 | ACATCGCG | 0.0672
131 | AATAGTGC | -0.13
132 | ACCCCAAG | 0.2
133 | GCTTAGAC | 0.011
134 | AGATCAAG | -0.0111
135 | AAGATCTA | -0.166
136 | CCTTAACA | 0.0951
137 | CCCTACCG | 0.0488
138 | CCTGGAAC | 0.0383
139 | TAACTGAA | -0.0774
140 | CTCCAGAC | -0.132
141 | AATGCGTA | -0.036
142 | AACTGATA | 0.0627
143 | GTATATGA | 0.142
144 | AGCGACCT | -0.129
145 | CGATGCCC | -0.143
146 | GAGTGCAC | 0.195
147 | AGCCATTC | -0.152
148 | AACATCTT | -0.285
149 | AAGCCGAC | 0.00954
150 | CTCGCATC | -0.0723

Row | Sequence | binding signal [E-score]
151 | GATAGGAC | -0.0518
152 | ATTCAAAA | -0.0783
153 | TGCTTCAA | -0.12
154 | ACTTAAAT | -0.12
155 | GTGATTAA | 0.042
156 | CTATCCTA | -0.0172
157 | CTTTCACA | 0.24
158 | AGCCAGGA | -0.0177
159 | CATACTGA | -0.0158
160 | ATGCCCCC | -0.0488
161 | ACCTGGAG | 0.222
162 | ACACTGAT | 0.374
163 | AGCATAGC | -0.105
164 | ACCTCAGC | 0.0283
165 | AACCAGTC | -0.242
166 | CAAACATG | -0.181
167 | AGTCGGGG | 0.158
168 | AATTCCCG | -0.256
169 | CATAACGA | -0.133
170 | AAAGGTGA | -0.0568
171 | AACGGATG | -0.135
172 | CTATGATC | -0.0315
